# In the supplement of paper PMC12217912:
# The other results are listed elsewhere or left out. The full chains were built here from the parent and the listed change. Values near 0.05 are background.
# B1: TEV protease; numbered along this chain (parent)
# chain: MGESLFKGPRDYNPISSSICHLTNESDGHTTSLYGIGFGPFIITNKHLFRRNNGTLVVQSLHGVFKVKDTTTLQQHLVDGRDMIIIRMPKDFPPFPQKLKFREPQREERICLVTTNFQTKSMSSMVSDTSCTFPSGDGIFWKHWIQTKDGQCGSPLVSTRDGFIVGIHSASNFTNTNNYFTSVPKNFMELLTNQEAQQWVSGWRLNADSVLWGGHKVFMVKPEEPFQPVKEATQL
# Variants of: B1
# Test: raw area under fraction-flipped curve 0-4 h after induction (AUC4h, not background-subtracted), DNA-recorder readout of cleavage of the substrate (dimensionless); higher = more cleavage of the substrate by the protease variant
# Conditions: temperature: 34 °C; time window: 0-4 h after rhamnose induction
# Experimental: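 In vivo DNA recorder in E. coli TOP10(DE3) ΔrhaA at 34 °C. Each TEVp single-site mutant (parent TEVp 0) is paired with a single-site variant of the 7-mer TEVs (canonical ENLYFQ|S). The substrate sits between flexible linkers in a Bxb1-sfGFP-TEVs-SsrA fusion, so cleavage stabilises Bxb1 and speeds flipping of a recombination array, read by NGS. The value is the raw area under the fraction-flipped curve over 0-4 h after rhamnose induction (AUC4h), with ≥20 reads per time point. It is not background-subtracted; inactive controls average about 0.047.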
# 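Also: Bxb1 expression induced with 0.2% (w/v) L-rhamnose at OD600 near 0.5, cultures sampled hourly, flipped fraction per protease–substrate barcode pair counted by paired-end Illumina sequencing.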
Variant,area with substrate ECLYFQS,area with substrate EDLYFQS,area with substrate EELYFQS,area with substrate EGLYFQS,area with substrate EHLYFQS,area with substrate EKLYFQS,area with substrate ELLYFQS,area with substrate EMLYFQS,area with substrate ERLYFQS,area with substrate ESLYFQS
V78D,0.082,0.0327,0.104,0.0682,0.0571,0.0669,0.0588,0.0718,0.0628,0.0748
V78E,0.0714,0.0858,0.0828,0.0611,0.0631,0.0744,0.0703,0.0717,0.0617,0.0746
V78I,0.1,0.142,0.126,–,–,0.0969,–,0.121,–,–
Q75M,0.0949,–,–,0.0921,–,–,–,0.113,–,–
E223A,–,–,–,–,–,0.0897,–,–,–,–
T181I,–,0.0633,–,0.0676,–,0.0487,–,–,0.0575,0.0634
E25S,0.133,0.0973,–,0.087,0.129,0.108,0.0865,0.157,0.105,0.121
R50Y,0.142,0.152,0.163,–,–,0.149,–,0.22,–,0.135
E231I,–,–,–,–,0.162,0.136,–,0.109,–,0.0814
V217E,–,–,–,–,–,0.0649,–,–,0.0631,0.0656
K90A,0.0916,–,0.113,–,–,–,–,–,–,0.101
R87Q,0.123,–,–,–,–,–,–,–,–,0.182
R51S,0.107,–,–,0.13,–,–,–,0.109,0.0987,0.0984
M83R,0.0477,–,0.0502,0.0619,–,–,0.0439,0.0579,–,–
L190D,–,0.119,0.0829,–,0.0766,0.0937,–,–,0.102,–
L190F,–,–,–,0.082,–,0.0879,–,0.104,0.0837,0.092
Q197R,–,–,–,–,–,0.108,–,0.0885,–,0.0831
V57E,0.124,–,–,0.0771,–,0.0745,–,0.106,–,0.0988
V57Q,0.0781,–,–,–,–,–,–,–,–,0.114
D82M,0.059,0.0405,–,0.0608,–,–,–,0.0446,0.0499,0.0544

Variant,area with substrate ECLYFQS,area with substrate EDLYFQS,area with substrate EELYFQS,area with substrate EGLYFQS,area with substrate EHLYFQS,area with substrate EKLYFQS,area with substrate ELLYFQS,area with substrate EMLYFQS,area with substrate ERLYFQS,area with substrate ESLYFQS
D82V,0.0417,–,0.0471,–,–,0.0489,–,0.0746,0.0576,0.0497
F218I,–,0.112,0.112,–,0.0789,0.0858,0.0742,–,0.0879,0.0908
I15G,0.0759,0.0804,–,0.0671,–,0.0809,0.0509,0.0676,0.0774,0.0817
L22M,0.0909,–,0.111,0.0952,0.145,0.119,0.0528,0.117,0.0752,0.106
G28Y,0.0742,–,0.0991,0.0859,–,0.0686,0.0729,0.0573,–,0.0844
S182C,–,0.105,–,–,–,0.127,0.136,–,–,0.11
S182V,–,–,–,–,–,–,–,–,–,0.114
R81V,0.0857,–,–,0.079,–,–,–,–,0.0853,0.103
Y34H,0.112,–,–,0.0571,–,–,–,–,–,0.113
L77R,0.0533,–,0.11,0.0756,–,0.0626,0.0779,0.0652,–,0.0757
S60G,0.102,–,–,–,–,–,–,–,–,0.088
N186F,–,–,–,0.0957,–,–,–,–,0.119,0.105
T44M,0.0662,–,0.0818,–,0.0053,0.0538,0.0458,0.0648,–,0.0504
I85H,0.0775,–,–,0.0515,–,0.0445,–,–,0.0655,–
T233P,–,–,0.112,–,–,0.126,–,–,0.118,–
N206R,–,–,–,0.0611,–,0.0839,0.0774,0.0947,–,0.0887
G2H,0.11,–,–,0.105,0.13,–,–,–,0.13,0.141
G2T,0.137,0.0788,0.154,–,–,0.12,–,–,0.172,–
G2Y,0.145,0.166,–,0.136,0.157,–,0.112,0.213,–,0.166
G2K,0.162,–,0.188,0.125,–,–,0.108,–,0.15,0.096

# Same assay, conditions: temperature: 34 °C; time window: 0-4 h after rhamnose induction
Variant,area with substrate EVLYFQS,area with substrate EWLYFQS,area with substrate EILYFQS,area with substrate EPLYFQS,area with substrate EQLYFQS,area with substrate EYLYFQS,area with substrate EALYFQS,area with substrate EFLYFQS,area with substrate ETLYFQS
V78D,0.0591,0.0471,–,–,–,–,–,–,–
V78E,0.0863,0.073,0.0667,0.0801,0.0887,0.08,–,–,–
V78I,–,–,–,0.111,0.0768,0.134,–,–,–
Q75M,0.0952,–,–,–,–,–,–,–,–
E223A,–,–,–,–,–,–,0.115,–,–
T181I,–,–,–,0.0812,–,–,0.115,0.08,–
E25S,0.107,–,0.095,0.111,–,0.102,–,–,0.029
R50Y,0.0836,–,–,–,–,0.128,–,0.109,0.14
E231I,0.102,0.111,0.0936,0.101,0.102,–,0.103,0.158,0.15
V217E,–,0.0768,–,–,–,–,0.0553,–,0.0638
K90A,–,–,–,0.104,–,–,–,–,–
R87Q,–,–,0.0631,–,0.161,0.149,–,–,–
R51S,–,–,–,–,–,0.0766,–,–,–
M83R,–,–,–,–,–,–,–,–,0.0563
L190D,0.105,0.085,0.104,–,0.0842,–,0.0944,0.0695,–
L190N,–,–,0.0692,0.0827,–,–,0.0986,–,–
L190F,–,–,–,–,–,–,0.0797,–,0.0983
Q197R,–,–,0.0596,–,0.0898,–,0.115,–,–
V57E,–,–,0.122,–,0.132,0.117,–,–,–
V57Q,0.102,–,–,–,–,–,–,–,–
D82M,–,–,0.0497,–,0.0456,–,–,–,–

Variant,area with substrate EVLYFQS,area with substrate EWLYFQS,area with substrate EILYFQS,area with substrate EPLYFQS,area with substrate EQLYFQS,area with substrate EYLYFQS,area with substrate EALYFQS,area with substrate EFLYFQS,area with substrate ETLYFQS
D82V,–,–,–,0.0458,–,0.0485,–,–,–
F218I,–,–,0.0807,0.103,0.0942,0.0786,0.106,–,–
I15G,0.0739,0.0667,0.0697,0.0637,–,–,–,0.08,0.0485
L22M,0.0729,0.0827,0.143,0.0925,0.1,0.0918,–,–,–
G28Y,0.0758,0.0771,0.0796,0.0866,0.1,0.112,–,–,–
S182C,–,–,–,0.139,–,–,0.15,–,–
S182V,0.103,–,–,–,–,–,0.134,–,0.111
R81V,0.105,–,0.0742,–,–,–,–,–,0.144
Y34H,0.0937,–,0.125,–,–,–,–,–,–
L77R,0.0612,0.0555,0.0608,–,0.0653,–,–,–,–
S60G,–,–,0.0833,–,0.114,–,–,–,–
N186F,0.0896,–,–,0.107,–,–,0.132,–,–
T44M,0.0683,0.0676,0.0616,0.0622,0.0623,0.0627,–,0.0694,–
I85H,–,0.07,–,–,0.0615,–,–,–,–
T233P,0.105,–,–,–,–,–,0.113,–,–
N206R,0.0456,–,–,–,0.0872,0.08,0.11,–,–
G2H,0.125,–,–,–,–,–,–,0.162,–
G2T,–,0.15,0.15,–,0.178,–,–,–,–
G2Y,0.134,–,–,–,0.185,0.17,–,–,–
G2K,–,0.143,0.134,–,–,0.141,–,–,0.137
